Data reported in the supplement of paper PMC11876631.
Positions count from the first letter of the chain named. Names and notes keep the numbering of the source. ± gives the standard deviation of the averaged measurements. Laboratory Escherichia coli strains with one amino-acid change in an essential protein, pooled on minimal glucose agar with carbenicillin or gentamicin at twice the control MIC (plus kanamycin and chloramphenicol for the plasmids), 48 h. Fold change of barcode share against drug-free plates; higher = less susceptible. Active = above 20 in both replicates (the paper's putatively resistant). '<' = one read or none on drug, '>' = one read or none on a drug-free plate. Shares are relative, so most strains fall below 1 when a few take over. Listed are strains with at least 15 reads on both drug-free plates, and hits; most hits rest on fewer reference reads. Replicate rank correlation about 0.5. Edits are read from barcodes.

Biological target: Escherichia coli (laboratory strain)
Test: barcode share on antibiotic plates over drug-free plates; higher = less susceptible
Description: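 A pool of E. coli strains, each edited to carry one amino-acid change in an essential protein, was grown for 48 h on minimal glucose agar with or without antibiotic; strain barcodes were sequenced; mean of two replicates.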

[1] = antibiotic: carbenicillin, 2× MIC (3.1 µg/mL)
[2] = antibiotic: gentamicin, 2× MIC (MIC 0.45 µg/mL)

B1: murG V122D (protein)
chain: MSGQGKRLMVMAGGTGGHVFPGLAVAHHLMAQGWQVRWLGTADRMEADLVPKHGIEIDFIRISGLRGKGIKALIAAPLRIFNAWRQARAIMKAYKPDVVLGMGGYVSGPGGLAAWSLGIPVDLHEQNGIAGLTNKWLAKIATKVMQAFPGAFPNAEVVGNPVRTDVLALPLPQQRLAGREGPVRVLVVGGSQGARILNQTMPQVAAKLGDSVTIWHQSGKGSQQSVEQAYAEAGQPQHKVTEFIDDMAAAYAWADVVVCRSGALTVSEIAAAGLPALFVPFQHKDRQQYWNALPLEKAGAAKIIEQPQLSVDAVANTLAGWSRETLLTMAERARAASIPDATERVANEVSRVARA
- fold change of barcode share [1]: 0.102 ± 0.05

B2: murG V185A (protein)
chain: B1 chain with D122V, V185A
- fold change of barcode share [1]: 0.325 ± 0.058
- fold change of barcode share [2]: < 0.0163

B3: murG V185W (protein)
chain: B1 chain with D122V, V185W
- fold change of barcode share [1]: 0.297 ± 0.15
- fold change of barcode share [2]: 0.00693 ± 0.0014

B4: murG V185Q (protein)
chain: B1 chain with D122V, V185Q
- fold change of barcode share [1]: 0.365 ± 0.011
- fold change of barcode share [2]: < 0.00949

B5: murG V185D (protein)
chain: B1 chain with D122V, V185D
- fold change of barcode share [1]: 0.211 ± 0.076

B6: murG V185P (protein)
chain: B1 chain with D122V, V185P
- fold change of barcode share [1]: 0.82 ± 0.047
- fold change of barcode share [2]: < 0.00965

B7: murG V187A (protein)
chain: B1 chain with D122V, V187A
- fold change of barcode share [1]: 0.692 ± 0.018
- fold change of barcode share [2]: 0.00347 ± 0.0016

B8: murG V187Q (protein)
chain: B1 chain with D122V, V187Q
- fold change of barcode share [1]: 0.299 ± 0.018
- fold change of barcode share [2]: 0.00479 ± 0.0022

B9: murG L186A (protein)
chain: B1 chain with D122V, L186A
- fold change of barcode share [1]: 0.278 ± 0.08
- fold change of barcode share [2]: 0.397 ± 0.56

B10: murG L186W (protein)
chain: B1 chain with D122V, L186W
- fold change of barcode share [1]: 0.695 ± 0.075
- fold change of barcode share [2]: 0.00585 ± 0.0024

B11: murG L186Q (protein)
chain: B1 chain with D122V, L186Q
- fold change of barcode share [1]: 0.26767 ± 0.00011
- fold change of barcode share [2]: < 0.00195

B12: murG L186D (protein)
chain: B1 chain with D122V, L186D
- fold change of barcode share [1]: 0.604 ± 0.14
- fold change of barcode share [2]: 0.0196 ± 0.017

B13: murG L186P (protein)
chain: B1 chain with D122V, L186P
- fold change of barcode share [1]: 0.269 ± 0.0063
- fold change of barcode share [2]: < 0.00232
